Patent publication US20250108124A1, “ANTIBODY DRUG […] MATES TECHNOLOGY FOR […] AGENTS” (Biohaven Therapeutics Ltd., priority 2021, published 2025)

How the values were obtained:
[1] = Aggregation of the purified antibody drug conjugates (ADC quality analysis after conjugation); type: physicochemical; conditions: ADC after conjugation with 4 equivalents of reagent and buffer exchange to PBS pH 7.4; A = brentuximab, B = enfortumab
Description: (§1) The desired antibodies (A=brentuximab and B=enfortumab) were buffer exchanged for over 8 dilution volumes (DVs) with 50 mM HEPES buffer, pH 7.5. The target antibody concentration after buffer exchange was >14 mg/mL. A 10 mM stock solution in DMSO was then prepared for each conjugation reagent. Conjugations of the appropriate reagent to the antibody (A or B) was performed using 4 equivalents of reagent at a target antibody concentration of 10 mg/mL in 50 mM HEPES buffer (pH 7.5) with 20% (v/v) DMSO at 25° C. from 1-7 days. The conjugation reactions were analyzed for drug to antibody ratio (DAR) by LC-MS every 24 hrs. When the DAR reached >1.9 (for linear reagents) or >3.8 (for branched reagents), buffer exchange by UFDF over 30 DVs to PBS, pH7.4 was performed to a final concentration range of approximately 5-9 mg/mL. The ADCs were then analyzed for quality under various conditions.

[2] = Drug to antibody ratio (DAR) analysis by LC-MS; type: physicochemical; conditions: drug to antibody ratio of final ADC by LC-MS; A = brentuximab, B = enfortumab
Description: as §1
The following formula is used for DAR analysis.

B1: B-cmp. 1101: "B=enfortumab"; "Conjugations of the appropriate reagent to the antibody (A or B)": ADC of enfortumab with reagent compound 1101 (conjugate, chains of the INN, looked up)
heavy: EVQLVESGGGLVQPGGSLRLSCAASGFTFSSYNMNWVRQAPGKGLEWVSYISSSSSTIYYADSVKGRFTISRDNAKNSLSLQMNSLRDEDTAVYYCARAYYYGMDVWGQGTTVTVSSASTKGPSVFPLAPSSKSTSGGTAALGCLVKDYFPEPVTVSWNSGALTSGVHTFPAVLQSSGLYSLSSVVTVPSSSLGTQTYICNVNHKPSNTKVDKRV[human IgG1 Fc omitted here]
light: DIQMTQSPSSVSASVGDRVTITCRASQGISGWLAWYQQKPGKAPKFLIYAASTLQSGVPSRFSGSGSGTDFTLTISSLQPEDFATYYCQQANSFPPTFGGGTKVEIKRTVAAPSVFIFPPSDEQLKSGTASVVCLLNNFYPREAKVQWKVDNALQSGNSQESVTEQDSKDSTYSLSSTLTLSKADYEKHKVYACEVTHQGLSSPVTKSFNRGEC
modifications: conjugated to reagent compound 1101
With B1 the Agg. % [1] was 1.12% and the DAR [2] was 2.04.

B2: B-cmp. 1102: "B=enfortumab"; "Conjugations of the appropriate reagent to the antibody (A or B)": ADC of enfortumab with reagent compound 1102 (conjugate, chains of the INN, looked up)
heavy: EVQLVESGGGLVQPGGSLRLSCAASGFTFSSYNMNWVRQAPGKGLEWVSYISSSSSTIYYADSVKGRFTISRDNAKNSLSLQMNSLRDEDTAVYYCARAYYYGMDVWGQGTTVTVSSASTKGPSVFPLAPSSKSTSGGTAALGCLVKDYFPEPVTVSWNSGALTSGVHTFPAVLQSSGLYSLSSVVTVPSSSLGTQTYICNVNHKPSNTKVDKRV[human IgG1 Fc omitted here]
light: DIQMTQSPSSVSASVGDRVTITCRASQGISGWLAWYQQKPGKAPKFLIYAASTLQSGVPSRFSGSGSGTDFTLTISSLQPEDFATYYCQQANSFPPTFGGGTKVEIKRTVAAPSVFIFPPSDEQLKSGTASVVCLLNNFYPREAKVQWKVDNALQSGNSQESVTEQDSKDSTYSLSSTLTLSKADYEKHKVYACEVTHQGLSSPVTKSFNRGEC
modifications: conjugated to reagent compound 1102
For B2, the Agg. % [1] was 0.97% and the DAR [2] was 2.00.

B3: B-cmp. 1103: "B=enfortumab"; "Conjugations of the appropriate reagent to the antibody (A or B)": ADC of enfortumab with reagent compound 1103 (conjugate, chains of the INN, looked up)
heavy: EVQLVESGGGLVQPGGSLRLSCAASGFTFSSYNMNWVRQAPGKGLEWVSYISSSSSTIYYADSVKGRFTISRDNAKNSLSLQMNSLRDEDTAVYYCARAYYYGMDVWGQGTTVTVSSASTKGPSVFPLAPSSKSTSGGTAALGCLVKDYFPEPVTVSWNSGALTSGVHTFPAVLQSSGLYSLSSVVTVPSSSLGTQTYICNVNHKPSNTKVDKRV[human IgG1 Fc omitted here]
light: DIQMTQSPSSVSASVGDRVTITCRASQGISGWLAWYQQKPGKAPKFLIYAASTLQSGVPSRFSGSGSGTDFTLTISSLQPEDFATYYCQQANSFPPTFGGGTKVEIKRTVAAPSVFIFPPSDEQLKSGTASVVCLLNNFYPREAKVQWKVDNALQSGNSQESVTEQDSKDSTYSLSSTLTLSKADYEKHKVYACEVTHQGLSSPVTKSFNRGEC
modifications: conjugated to reagent compound 1103
B3 gave an Agg. % [1] of 0.83% and a DAR [2] of 2.01.

B4: B-cmp. 1574: "B=enfortumab"; "Conjugations of the appropriate reagent to the antibody (A or B)": ADC of enfortumab with reagent compound 1574 (conjugate, chains of the INN, looked up)
heavy: EVQLVESGGGLVQPGGSLRLSCAASGFTFSSYNMNWVRQAPGKGLEWVSYISSSSSTIYYADSVKGRFTISRDNAKNSLSLQMNSLRDEDTAVYYCARAYYYGMDVWGQGTTVTVSSASTKGPSVFPLAPSSKSTSGGTAALGCLVKDYFPEPVTVSWNSGALTSGVHTFPAVLQSSGLYSLSSVVTVPSSSLGTQTYICNVNHKPSNTKVDKRV[human IgG1 Fc omitted here]
light: DIQMTQSPSSVSASVGDRVTITCRASQGISGWLAWYQQKPGKAPKFLIYAASTLQSGVPSRFSGSGSGTDFTLTISSLQPEDFATYYCQQANSFPPTFGGGTKVEIKRTVAAPSVFIFPPSDEQLKSGTASVVCLLNNFYPREAKVQWKVDNALQSGNSQESVTEQDSKDSTYSLSSTLTLSKADYEKHKVYACEVTHQGLSSPVTKSFNRGEC
modifications: conjugated to reagent compound 1574
In the case of B4, the Agg. % [1] is reported as 1.23% and the DAR [2] is reported as 3.92.

B5: B-cmp. 1105: "B=enfortumab"; "Conjugations of the appropriate reagent to the antibody (A or B)": ADC of enfortumab with reagent compound 1105 (conjugate, chains of the INN, looked up)
heavy: EVQLVESGGGLVQPGGSLRLSCAASGFTFSSYNMNWVRQAPGKGLEWVSYISSSSSTIYYADSVKGRFTISRDNAKNSLSLQMNSLRDEDTAVYYCARAYYYGMDVWGQGTTVTVSSASTKGPSVFPLAPSSKSTSGGTAALGCLVKDYFPEPVTVSWNSGALTSGVHTFPAVLQSSGLYSLSSVVTVPSSSLGTQTYICNVNHKPSNTKVDKRV[human IgG1 Fc omitted here]
light: DIQMTQSPSSVSASVGDRVTITCRASQGISGWLAWYQQKPGKAPKFLIYAASTLQSGVPSRFSGSGSGTDFTLTISSLQPEDFATYYCQQANSFPPTFGGGTKVEIKRTVAAPSVFIFPPSDEQLKSGTASVVCLLNNFYPREAKVQWKVDNALQSGNSQESVTEQDSKDSTYSLSSTLTLSKADYEKHKVYACEVTHQGLSSPVTKSFNRGEC
modifications: conjugated to reagent compound 1105
Work on B5 yielded an Agg. % [1] of 0.60% and a DAR [2] of 3.62.

B6: B-cmp. 1106: "B=enfortumab"; "Conjugations of the appropriate reagent to the antibody (A or B)": ADC of enfortumab with reagent compound 1106 (conjugate, chains of the INN, looked up)
heavy: EVQLVESGGGLVQPGGSLRLSCAASGFTFSSYNMNWVRQAPGKGLEWVSYISSSSSTIYYADSVKGRFTISRDNAKNSLSLQMNSLRDEDTAVYYCARAYYYGMDVWGQGTTVTVSSASTKGPSVFPLAPSSKSTSGGTAALGCLVKDYFPEPVTVSWNSGALTSGVHTFPAVLQSSGLYSLSSVVTVPSSSLGTQTYICNVNHKPSNTKVDKRV[human IgG1 Fc omitted here]
light: DIQMTQSPSSVSASVGDRVTITCRASQGISGWLAWYQQKPGKAPKFLIYAASTLQSGVPSRFSGSGSGTDFTLTISSLQPEDFATYYCQQANSFPPTFGGGTKVEIKRTVAAPSVFIFPPSDEQLKSGTASVVCLLNNFYPREAKVQWKVDNALQSGNSQESVTEQDSKDSTYSLSSTLTLSKADYEKHKVYACEVTHQGLSSPVTKSFNRGEC
modifications: conjugated to reagent compound 1106
B6 gave an Agg. % [1] of 1.68% and a DAR [2] of 3.85.

B7: B-cmp. 1199: "B=enfortumab"; "Conjugations of the appropriate reagent to the antibody (A or B)": ADC of enfortumab with reagent compound 1199 (conjugate, chains of the INN, looked up)
heavy: EVQLVESGGGLVQPGGSLRLSCAASGFTFSSYNMNWVRQAPGKGLEWVSYISSSSSTIYYADSVKGRFTISRDNAKNSLSLQMNSLRDEDTAVYYCARAYYYGMDVWGQGTTVTVSSASTKGPSVFPLAPSSKSTSGGTAALGCLVKDYFPEPVTVSWNSGALTSGVHTFPAVLQSSGLYSLSSVVTVPSSSLGTQTYICNVNHKPSNTKVDKRV[human IgG1 Fc omitted here]
light: DIQMTQSPSSVSASVGDRVTITCRASQGISGWLAWYQQKPGKAPKFLIYAASTLQSGVPSRFSGSGSGTDFTLTISSLQPEDFATYYCQQANSFPPTFGGGTKVEIKRTVAAPSVFIFPPSDEQLKSGTASVVCLLNNFYPREAKVQWKVDNALQSGNSQESVTEQDSKDSTYSLSSTLTLSKADYEKHKVYACEVTHQGLSSPVTKSFNRGEC
modifications: conjugated to reagent compound 1199
Work on B7 yielded an Agg. % [1] of 0.74% and a DAR [2] of 2.04.

B8: B-cmp. 1100: "B=enfortumab"; "Conjugations of the appropriate reagent to the antibody (A or B)": ADC of enfortumab with reagent compound 1100 (conjugate, chains of the INN, looked up)
heavy: EVQLVESGGGLVQPGGSLRLSCAASGFTFSSYNMNWVRQAPGKGLEWVSYISSSSSTIYYADSVKGRFTISRDNAKNSLSLQMNSLRDEDTAVYYCARAYYYGMDVWGQGTTVTVSSASTKGPSVFPLAPSSKSTSGGTAALGCLVKDYFPEPVTVSWNSGALTSGVHTFPAVLQSSGLYSLSSVVTVPSSSLGTQTYICNVNHKPSNTKVDKRV[human IgG1 Fc omitted here]
light: DIQMTQSPSSVSASVGDRVTITCRASQGISGWLAWYQQKPGKAPKFLIYAASTLQSGVPSRFSGSGSGTDFTLTISSLQPEDFATYYCQQANSFPPTFGGGTKVEIKRTVAAPSVFIFPPSDEQLKSGTASVVCLLNNFYPREAKVQWKVDNALQSGNSQESVTEQDSKDSTYSLSSTLTLSKADYEKHKVYACEVTHQGLSSPVTKSFNRGEC
modifications: conjugated to reagent compound 1100
In the case of B8, the Agg. % [1] is reported as 1.73% and the DAR [2] is reported as 1.99.
